Further values from the same series stand in other lists.
Columns and labels:
Rat [1] = test: concentration in brain after dosing; details: 1.5 h; dosed: 2-Methyltetrahydrofuran; 400 mg/kg; oral; Female; F344
Rat [2] = test: concentration in plasma after dosing; details: 20 min; dosed: 2-Methyltetrahydrofuran; 10 mg/kg; iv; Female; F344
Rat [3] = test: concentration in plasma after dosing; details: 20 min; dosed: 2-Methyltetrahydrofuran; 30 mg/kg; oral; Female; F344
Rat [4] = test: concentration in plasma after dosing; details: 10 min; dosed: 2-Methyltetrahydrofuran; 10 mg/kg; oral; Male; F344
Rat [5] = test: concentration in brain after dosing; details: 3 h; dosed: 2-Methyltetrahydrofuran; 30 mg/kg; oral; Female; F344
Rat [6] = test: concentration in brain after dosing; details: 0.25 h; dosed: 2-Methyltetrahydrofuran; 30 mg/kg; oral; Male; F344
Rat [7] = test: concentration in plasma after dosing; details: 2 h; dosed: 2-Methyltetrahydrofuran; 10 mg/kg; oral; Female; F344
Rat [8] = test: concentration in plasma after dosing; details: 0.5 h; dosed: 2-Methyltetrahydrofuran; 30 mg/kg; oral; Female; F344
Rat [9] = test: concentration in plasma after dosing; details: 20 min; dosed: 2-Methyltetrahydrofuran; 400 mg/kg; oral; Female; Harlan Sprague Dawley
Rat [10] = test: concentration in brain after dosing; details: 0.75 h; dosed: 2-Methyltetrahydrofuran; 10 mg/kg; oral; Female; F344
Rat [11] = test: concentration in plasma after dosing; details: 8 h; dosed: 2-Methyltetrahydrofuran; 400 mg/kg; oral; Male; F344
Rat [12] = test: concentration in brain after dosing; details: 10 min; dosed: 2-Methyltetrahydrofuran; 400 mg/kg; oral; Male; F344
Rat [13] = test: concentration in plasma after dosing; details: 3 h; dosed: 2-Methyltetrahydrofuran; 30 mg/kg; oral; Male; F344
Rat [14] = test: concentration in plasma after dosing; details: 1 h; dosed: 2-Methyltetrahydrofuran; 30 mg/kg; oral; Male; F344
Rat [15] = test: concentration in brain after dosing; details: 3 h; dosed: 2-Methyltetrahydrofuran; 30 mg/kg; oral; Male; F344
Rat [16] = test: concentration in plasma after dosing; details: 2 h; dosed: 2-Methyltetrahydrofuran; 30 mg/kg; oral; Female; F344
Rat [17] = test: concentration in plasma after dosing; details: 5 min; dosed: Bromochloroacetic acid; 10 mg/kg; iv; Male; F344
Rat [18] = test: concentration in plasma after dosing; details: dosed: Bromochloroacetic acid, 40 mg/kg, oral, Male, F344
Rat [19] = test: concentration in plasma after dosing; details: 2 min; dosed: Bromochloroacetic acid; 10 mg/kg; iv; Male; F344
Rat [20] = test: concentration in plasma after dosing; details: dosed: Fluorotelomer alcohol 8+2, 80 mg/kg, oral, Female, Harlan Sprague Dawley
Rat [21] = test: concentration in plasma after dosing; details: 0.5 h; dosed: Fluorotelomer alcohol 8+2; 24 mg/kg; oral; Male; Harlan Sprague Dawley
Rat [22] = test: concentration in plasma after dosing; details: 5 h; dosed: Formamide; 30 mg/kg; iv; Female; F344
Rat [23] = test: concentration in plasma after dosing; details: dosed: Formamide, 300 mg/kg, oral, Female, Harlan Sprague Dawley
Rat [24] = test: concentration in plasma after dosing; details: dosed: Formamide, 90 mg/kg, iv, Male, Harlan Sprague Dawley
Rat [25] = test: concentration in plasma after dosing; details: dosed: Formamide, 600 mg/kg, oral, Male, Harlan Sprague Dawley
Rat [26] = test: concentration in plasma after dosing; details: dosed: Formamide, 90 mg/kg, iv, Male, Harlan Sprague Dawley; remark: listed apart in the source
Rat [27] = test: concentration in plasma after dosing; details: dosed: Formamide, 36 mg/kg, oral, Male, Harlan Sprague Dawley
Rat [28] = test: concentration in plasma after dosing; details: dosed: Formamide, 90 mg/kg, iv, Male, Harlan Sprague Dawley; remark: listed apart in the source
Rat [29] = test: concentration in plasma after dosing; details: dosed: Formamide, 600 mg/kg, oral, Male, F344
Rat [30] = test: concentration in plasma after dosing; details: dosed: Formamide, 90 mg/kg, iv, Male, Harlan Sprague Dawley; remark: listed apart in the source
Rat [31] = test: concentration in plasma after dosing; details: 1 h; dosed: Pyridine; 50 mg/kg; oral; Male; Harlan Sprague Dawley
Rat [32] = test: concentration in plasma after dosing; details: 2 h; dosed: Pyridine; 10 mg/kg; iv; Male; Harlan Sprague Dawley
Rat [33] = test: concentration in plasma after dosing; details: 20 min; dosed: Pyridine; 50 mg/kg; oral; Male; Harlan Sprague Dawley
Rat [34] = test: concentration in plasma after dosing; details: 50 min; dosed: Pyridine; 10 mg/kg; iv; Male; Harlan Sprague Dawley
Rat [35] = test: concentration in plasma after dosing; details: 6 h; dosed: Pyridine; 50 mg/kg; oral; Female; F344
Rat [36] = test: concentration in plasma after dosing; details: 40 min; dosed: Pyridine; 200 mg/kg; oral; Female; Harlan Sprague Dawley
Rat [37] = test: concentration in plasma after dosing; details: 20 min; dosed: Pyridine; 10 mg/kg; iv; Male; Harlan Sprague Dawley
Rat [38] = test: concentration in plasma after dosing; details: 10 min; dosed: Pyridine; 10 mg/kg; oral; Male; Harlan Sprague Dawley
Rat [39] = test: concentration in plasma after dosing; details: 2 h; dosed: Pyridine; 10 mg/kg; iv; Male; Harlan Sprague Dawley; remark: listed apart in the source

CC1CCCO1 (centres undefined) [2-Methyltetrahydrofuran]
Details	concentration in brain [µg/g]	concentration in plasma [ng/mL]
Rat [1]	116	–
Rat [2]	–	6740
Rat [3]	–	16000
Rat [4]	–	4300
Rat [5]	0.253	–
Rat [6]	16	–
Rat [7]	–	222
Rat [8]	–	19500
Rat [9]	–	186000
Rat [10]	0.719	–
Rat [11]	–	62900
Rat [12]	134	–
Rat [13]	–	4330
Rat [14]	–	16500
Rat [15]	0.549	–
Rat [16]	–	4080

O=C(O)C(Cl)Br (centres undefined) [Bromochloroacetic acid]
Details	concentration in plasma [ng/mL]
Rat [17]	11300
Rat [19]	20500

Rat [18]
Details	concentration in plasma [ng/mL]
2 h	3220
10 min	5970

OCCC(F)(F)C(F)(F)C(F)(F)C(F)(F)C(F)(F)C(F)(F)C(F)(F)C(F)(F)F [Fluorotelomer alcohol 8+2]
Rat [20]
Details	concentration in plasma [ng/mL]
0.25 h	301
24 h	11

Details	concentration in plasma [ng/mL]
Rat [21]	430

NC=O [Formamide]
Details	concentration in plasma [ng/mL]
Rat [22]	32300

Details	concentration in plasma [ng/mL]
Rat [23], 0.5 h	170000
Rat [23], 48 h	28000
Rat [24], 10 min	146000
Rat [24], 18 h	43100
Rat [25], 1 h	622000
Rat [25], 72 h	36900
Rat [26], 10 min	150000
Rat [26], 18 h	54700
Rat [27], 1.5 h	47400
Rat [27], 30 h	12400
Rat [28], 5 h	105000
Rat [28], 72 h	2600
Rat [29], 8 h	664000
Rat [29], 12 h	642000
Rat [30], 0.25 h	115000
Rat [30], 24 h	22600

c1ccncc1 [Pyridine]
Details	concentration in plasma [ng/mL]
Rat [31]	27600
Rat [32]	2210
Rat [33]	39200
Rat [34]	4070
Rat [35]	14500
Rat [36]	96500
Rat [37]	3170
Rat [38]	8100
Rat [39]	620

— EPA's CvTdb concentration-time database
